From patent US20240174727A1, “LONG-ACTING NATRIURETIC PEPTIDES AND USES THEREOF” (Eli Lilly and Company, priority 2022, published 2024)
Values joined by “and” are separate entries in the source; they are usually repeats but may differ in a detail not shown here. Identical values can stand only once. For at least one compound, name, drawing or mass did not settle the structure. Some compounds share one wording; it may come from a single statement.

Tested on: plasma cGMP
Experiment: In vivo monkey studies, plasma cGMP ELISA
Design: species or system male cynomolgus monkeys
Settings: for Net cGMP (nM) Change from Baseline 48 h: 48 h postdose; for Net cGMP (nM) Change from Baseline 72 h: 72 h postdose; for Net cGMP (nM) Change from Baseline 96 h: 96 h postdose; for Net cGMP (nM) Change from Baseline 120 h: 120 h postdose; for Net cGMP (nM) Change from Baseline 144 h: 144 h postdose; for Net cGMP (nM) Change from Baseline 168 h: 168 h postdose; for Net cGMP (nM) Change from Baseline 2 h: 2 h postdose; for Net cGMP (nM) Change from Baseline 4 h: 4 h postdose; for Net cGMP (nM) Change from Baseline 8 h: 8 h postdose; for Net cGMP (nM) Change from Baseline 12 h: 12 h postdose; for Net cGMP (nM) Change from Baseline 24 h: 24 h postdose; for Net cGMP (nM) Change from Baseline 36 h: 36 h postdose
Procedure: In vivo monkey studies were conducted as described in detail below. Young adult-to-adult male cynomolgus monkeys were given a single dose subcutaneously (SC). Blood was collected predose and at various pre-determined timepoints throughout the study period. Aliquot of cynomolgus monkey plasma was received for cyclic cGMP (cGMP) measurement and stored at −80° C. prior to use.
Control plasma was made for determining the recovery rate of spike-in cGMP using Enzo cGMP complete ELISA kit (Enzo Life Sciences, Inc, Farmingdale, NY, cat no. ADI-901-164). Briefly, blood from male Sprague Dawley rats (Inotiv, Indianapolis, IN), about 7 months old, was collected in a BD Vacutainer EDTA tube (Becton Dickinson, Franklin Lakes, NJ, cat no. BD-367856) with volume of approximate 4 mL through retro orbital bleeding. Plasma was prepared by spinning the tube in an Eppendorf Refrigerated Centrifuge 5810R (Brinkman Instruments, Inc, Westbury, NY) at 3500 rpm (3000×g) for 10 min at 4° C. Plasma was collected as Positive Control plasma. Cyclic GMP (cGMP standard from Enzo cGMP complete ELISA kit) was added to the positive control plasma at a final concentration of additional 40 nM. Positive Control and Spiked-in Control plasma were aliquoted and stored at −80° C.
The cGMP content was measured using the Enzo cGMP complete ELISA kit following the manufacturer's directions with modifications as described below. The cGMP standards provided in the kit were diluted 1:3 ranging from 50 nM to 0.023 nM in 1× assay buffer that was diluted in water from 2× assay buffer provided in the kit. The cGMP standards ([…]) were transferred to a 96-well polypropylene plate (Thermo Scientific, cat no. 442587).
Plasma samples were thawed from −80° C. and diluted 1:20 in 1× assay buffer in the above plate with a final volume of 150 μL. Assay buffer was added (150 μL) for both a non-specific binding control (in the absence of cGMP antibody) and a maximum binding control (in the absence of competing cGMP) in duplicate wells. Positive Control and Spiked-in Control plasma were diluted 1:20 in 1× assay buffer with a final volume of 150 μL in duplicate wells of the above plate. All diluted plasma was mixed by pipetting up and down several times.
Acetylation reagent mix was prepared by adding 1-part of acetic anhydride into 2-parts of triethylamine provided in the kit and mixing well using Vortex (Scientific Industries, Inc, Bohemia, NY). All controls, standards, and plasma samples were acetylated by adding 15 μL of acetylation reagent mix into the plate, one column at a time, and shaking for 1 min on a Titer Plate Shaker (Lab-Line Instrument, Inc., Melrose Park, IL) at room temperature. The plate was shaken for an additional 1 min following the acetylation of the last column to ensure the reaction was completed.
Acetylated controls, standard and plasma samples were transferred (100 μL) to an ELISA plate (n=1). Then 50 μL of cGMP conjugate were added to each well followed by the addition of 50 μL cGMP antibody to each well except for two non-specific binding wells, in which 50 μL of 1× assay buffer were added. The plate was then sealed and shaken for 2 h at room temperature on the plate shaker. Following this incubation, the plate was washed five times using 200 μL of 1× wash buffer diluted in water from 5× wash buffer provided in the kit. Then, 200 μL of para-Nitrophenylphosphate (pNpp) were added to each well. The plate was sealed with a new plate sealer and shaken in dark for 1 h at room temperature on the plate shaker. Finally, 50 μL of stop solution were added to each well to stop the enzyme reaction. The plate was then read at 405 nm using SpectraMax Plus (Molecular Devices, San Jose, CA).
The mean absorbance at 405 nm (O.D. 405 nm) for the non-specific binding controls was subtracted from the O.D. 405 nm of all samples. The subtracted O.D. 405 nm of all samples were then normalized with the mean subtracted O.D. 405 nm of the maximum binding controls as B/B0%. […]

[1] = dose 100 nmol/kg, monkey plasma
[2] = dose 300 nmol/kg, monkey plasma

CC[C@H](C)[C@@H]1NC(=O)[C@H](CCCNC(=N)N)NC(=O)[C@H](CC(=O)O)NC(=O)[C@H]([C@@H](C)CC)NC(=O)[C@H](CCCNC(=N)N)NC(=O)[C@H](CCCCN)NC(=O)CNC(=O)[C@H](Cc2ccccc2)NC(=O)[C@@H](NC(=O)[C@H](CO)NC(=O)[C@H](CO)NC(=O)[C@H](CCCNC(=N)N)NC(=O)CCNC(=O)[C@H](CCCCN)NC(=O)[C@H](CCC(=O)O)NC(=O)CCOCCOCCOCCOCCOCCOCCOCCOCCOCCOCCOCCOCCOCCOCCOCCOCCOCCOCCOCCOCCOCCOCCOCCOCCNC(=O)CNC(=O)[C@H](CCCCN)NC(=O)[C@H](CCC(=O)O)NC(=O)[C@H](CCCCN)NC(=O)[C@H](CCC(=O)O)NC(=O)[C@H](CCCCN)NC(=O)[C@H](CCC(=O)O)NC(=O)CC[C@H](NC(=O)CCCCCCCCCCCCCCCCCCC(=O)O)C(=O)O)CSCSC[C@@H](C(=O)N2CCC[C@H]2C(=O)N[C@@H](CO)C(=O)N[C@@H](Cc2ccccc2)C(=O)N[C@@H](CCCNC(=N)N)C(=O)N[C@@H](Cc2c[nH]cn2)C(=O)NCC(=O)N[C@@H](CO)C(=O)N2CCC[C@H]2C(=O)N[C@@H](CO)C(=O)N[C@@H](CO)C(=O)NCC(=O)N[C@@H](C)C(=O)N2CCC[C@H]2C(=O)N2CCC[C@H]2C(=O)N2CCC[C@H]2C(=O)N[C@@H](CO)C(N)=O)NC(=O)CNC(=O)[C@H](CC(C)C)NC(=O)CNC(=O)[C@H](CO)NC(=O)[C@H](CCC(N)=O)NC(=O)[C@H](Cc2c[nH]cn2)NC(=O)CNC1=O [Example 4]
Net cGMP (nM) Change from Baseline 48 h (dose 10 nmol/kg, monkey plasma): 16.53 nM
Net cGMP (nM) Change from Baseline 72 h (dose 10 nmol/kg, monkey plasma): 5.18 nM
Net cGMP (nM) Change from Baseline 96 h (dose 10 nmol/kg, monkey plasma): 1.93 nM
Net cGMP (nM) Change from Baseline 120 h (dose 10 nmol/kg, monkey plasma): 0.69 nM
Net cGMP (nM) Change from Baseline 144 h (dose 10 nmol/kg, monkey plasma): -0.1 nM
Net cGMP (nM) Change from Baseline 168 h (dose 10 nmol/kg, monkey plasma): 0.3 nM
Net cGMP (nM) Change from Baseline 2 h (dose 30 nmol/kg, monkey plasma): 21.5 nM
Net cGMP (nM) Change from Baseline 4 h (dose 30 nmol/kg, monkey plasma): 32.08 nM
Net cGMP (nM) Change from Baseline 8 h (dose 30 nmol/kg, monkey plasma): 34.86 nM
Net cGMP (nM) Change from Baseline 12 h (dose 30 nmol/kg, monkey plasma): 30.33 nM
Net cGMP (nM) Change from Baseline 24 h (dose 30 nmol/kg, monkey plasma): 20.57 nM
Net cGMP (nM) Change from Baseline 36 h (dose 30 nmol/kg, monkey plasma): 26.96 nM
Net cGMP (nM) Change from Baseline 48 h (dose 30 nmol/kg, monkey plasma): 17.93 nM
Net cGMP (nM) Change from Baseline 72 h (dose 30 nmol/kg, monkey plasma): 5.07 nM
Net cGMP (nM) Change from Baseline 96 h (dose 30 nmol/kg, monkey plasma): 7.97 nM
Net cGMP (nM) Change from Baseline 120 h (dose 30 nmol/kg, monkey plasma): 9.92 nM
Net cGMP (nM) Change from Baseline 144 h (dose 30 nmol/kg, monkey plasma): 7.07 nM
Net cGMP (nM) Change from Baseline 168 h (dose 30 nmol/kg, monkey plasma): 9.85 nM
Net cGMP (nM) Change from Baseline 0.083 h (dose 100 nmol/kg, 0.083 h postdose, monkey plasma): 3.5 nM
Net cGMP (nM) Change from Baseline 0.25 h (dose 100 nmol/kg, 0.25 h postdose, monkey plasma): 13.15 nM
Net cGMP (nM) Change from Baseline 0.5 h (dose 100 nmol/kg, 0.5 h postdose, monkey plasma): 22.17 nM
Net cGMP (nM) Change from Baseline 1 h (dose 100 nmol/kg, 1 h postdose, monkey plasma): 20.35 nM
Net cGMP (nM) Change from Baseline 12 h [1]: 29.13 nM and 14.92 nM
Net cGMP (nM) Change from Baseline 24 h [1]: 13.98 nM and 11.14 nM
Net cGMP (nM) Change from Baseline 96 h [1]: 5.89 nM and 4.82 nM
Net cGMP (nM) Change from Baseline 120 h [1]: 8.1 nM and 4.43 nM
Net cGMP (nM) Change from Baseline 144 h [1]: 3.77 nM and 5.24 nM
Net cGMP (nM) Change from Baseline 2 h [2]: 98.01 nM
Net cGMP (nM) Change from Baseline 4 h [2]: 85.85 nM
Net cGMP (nM) Change from Baseline 8 h [2]: 53.11 nM
Net cGMP (nM) Change from Baseline 12 h [2]: 38.75 nM
Net cGMP (nM) Change from Baseline 24 h [2]: 17.46 nM
Net cGMP (nM) Change from Baseline 36 h [2]: 17.49 nM
Net cGMP (nM) Change from Baseline 48 h [2]: 15.02 nM
Net cGMP (nM) Change from Baseline 72 h [2]: 12.59 nM
Net cGMP (nM) Change from Baseline 96 h [2]: 12.35 nM
Net cGMP (nM) Change from Baseline 120 h [2]: 12.49 nM
Net cGMP (nM) Change from Baseline 144 h [2]: 10.25 nM
Net cGMP (nM) Change from Baseline 168 h [2]: 12.43 nM
net cGMP levels (result in words) (monkeys, single SC dose, plasma): increased net cGMP levels
